Over roughly 33,000 sequences, “E-score (-0.5 to 0.5)” has its median near -0.016; the highest 2% begin near 0.32. The list shows a part of the results.
Molecular target: T1, Stp1 (UniProt B3LFK1)
T1 sequence: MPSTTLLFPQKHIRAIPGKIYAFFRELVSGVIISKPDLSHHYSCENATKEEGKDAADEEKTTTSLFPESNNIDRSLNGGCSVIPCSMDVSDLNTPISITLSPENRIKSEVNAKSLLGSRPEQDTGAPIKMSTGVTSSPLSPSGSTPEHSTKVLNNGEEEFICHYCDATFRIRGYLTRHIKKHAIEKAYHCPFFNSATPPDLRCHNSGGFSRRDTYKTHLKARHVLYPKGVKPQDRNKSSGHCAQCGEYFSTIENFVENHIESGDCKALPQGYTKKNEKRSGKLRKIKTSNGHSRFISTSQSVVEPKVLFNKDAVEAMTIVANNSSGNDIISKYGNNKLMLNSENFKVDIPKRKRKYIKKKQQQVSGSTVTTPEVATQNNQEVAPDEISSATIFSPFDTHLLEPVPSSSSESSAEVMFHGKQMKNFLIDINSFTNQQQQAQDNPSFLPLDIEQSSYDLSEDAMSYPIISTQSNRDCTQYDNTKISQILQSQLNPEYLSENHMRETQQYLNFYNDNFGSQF
Assay: PBM E-score (8-mer binding enrichment) (E-score (-0.5 to 0.5)); higher = stronger / more preferred TF binding; most listed sequences are background and not binding sites
Details: protein concentration: 200 nM; construct: GST-full length
Procedure, shortened: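 The E-score, a modified Wilcoxon-Mann-Whitney statistic, was computed by the Universal PBM Analysis Suite for every ungapped eight-base word pooled with its reverse complement. Scans behind it were normalised with masliner after bound GST-tagged yeast transcription factors were detected with fluorescent anti-GST. The proteins, at about 100-200 nM, had been applied to universal all-10-mer Agilent arrays made double-stranded by primer extension.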

Sequence	PBM E-score
CCTCATCC	-0.189
CAGGTAGC	-0.152
ACTTCGCA	-0.0561
ACACCGTA	-0.0212
ATCATCAC	0.0614
CCGTAGCG	0.126
TAATTGTA	0.154
AGAACCTC	-0.0711
CTGGGGAA	-0.37
AAGCATTA	-0.0707
AATATTGA	0.0546
TCTCAGAA	0.0131
TGGGAAAA	0.0523
CAATGCGC	0.147
CTACGGGC	-0.317
TCAAGTGA	-0.147
GCAAACGC	-0.0167
AGATGACT	-0.291
AGGCCTCG	-0.202
AATATTCG	0.14
CCCTACCC	-0.15
GACGTGCA	0.132
ACTAACAA	0.16
TCCAACAA	0.0431
TAGTAGGA	-0.18

Sequence	PBM E-score
GCTTTGAC	0.026
ACCGGGCC	-0.14
ACCGACAC	0.0201
AGGTATAC	0.0174
AAGGACGA	-0.149
GACGTATC	-0.0996
CAATCTCG	0.0119
CGACGCCG	0.457
AAAAGAGG	-0.0808
ATGCTCCA	-0.129
GAATTCGC	0.0576
ACCGGCCG	0.232
TGTACCAA	-0.0707
GAACCCAC	-0.0263
AGAGTTGA	-0.284
CATTTCTA	0.0932
AGATTTCG	0.158
GACGGGAA	0.0155
GAAGTCCC	-0.243
GTGACCAA	-0.0172
ATGATACG	0.222
CTCTGGCC	-0.0958
AATTCTAG	0.0882
CAAGCAAC	0.0476
ACCGAAGA	-0.00975

Sequence	PBM E-score
CTCGGCAA	0.1
GTAACGTA	-0.00488
CTTTATCC	-0.105
ATTGGCTA	-0.0737
AAACACGT	0.0747
ACAAGTCG	-0.152
ACAGATCC	0.1
CCTATAAG	-0.235
AGGTGGAA	-0.125
AGTTTAGA	-0.0385
ATACGTCC	-0.0977
AGCTAGCG	-0.155
AGGATACC	-0.187
AGGCACTA	0.301
AATCAATT	0.218
CCCCCTGC	-0.346
CTGAGCAC	-0.19
AGTCCTGC	-0.228
CTATTCGC	0.0152
GTAATCAA	0.296
GCCTCCCC	-0.121
CTCGTCGA	-0.0577
AACTGAAT	-0.0877
GCAGACGC	0.0501
AAGGGGTC	-0.348

Sequence	PBM E-score
GAGGTACA	-0.0637
AACTATCT	-0.0437
GACCTTAA	-0.0305
CTATATCC	-0.152
AGGGTGAC	-0.163
ATATCCTC	-0.109
CGACATTC	0.0805
AGAGTACT	-0.0958
CAACTTGG	0.183
AGGGTGAG	-0.125
ACCTATTA	-0.0741
ATAAACTC	0.174
CAGTATCG	0.0809
ACAAGCCA	-0.0362
CCATGACA	-0.0644
CTGCTGGA	-0.0314
CCCTGGCG	-0.0313
AGGCAATG	0.0553
CTCGTGCC	0.294
ATTCATAA	0.125
CCGCACAG	0.201
CGGCAAGC	0.124
ATCGTGAA	-0.0119
ACGGTATC	0.113
CAGTAAAA	0.031

Sequence	PBM E-score
CCTTTAGA	-0.0438
CAACAACG	0.0339
CCGATAGA	-0.114
CATCATAA	0.178
AACGGCCC	0.235
CCGTGGTA	0.149
CCAGAAAA	-0.0809
CTAATGAC	-0.118
GCAAAATA	0.104
CATGCCCG	-0.115
CTTCTTCA	-0.0169
GGTCGACC	-0.00481
CGCAATGA	-0.0583
ATCAGTAA	0.154
GCAATAGC	0.0926
GACGGCTA	0.235
AGGGACAT	0.0229
AATGATAT	0.175
GTGCCTAA	0.184
AGAATAAA	0.131
ACAGAGTG	-0.107
ATGCGTCG	-0.149
TAAGAATA	-0.0476
CAACAGGG	-0.0414
AACGGCGG	0.378

Sequence	PBM E-score
AGCGACCG	-0.0169
AATAATTG	0.0649
CAAGCACA	0.0261
ACCTCCGC	-0.0776
CAGACCAA	-0.0845
CAAGGTTA	-0.147
ATAACGAA	0.0556
ACAGTGGG	-0.219
AAAGTATA	0.0839
CCGTACGG	0.341
CTTGTTCA	-0.062
GCGGTACC	-0.0227
TGCCAGCA	0.01
GTCGTGAA	-0.234
TCACAGCA	0.128
TGCGCAAA	0.0949
AACACACA	0.113
GAGATCAC	-0.112
AAAGTAAT	0.153
AGAAGTAC	-0.141
GAATTAGC	0.0417
CAGGAGGG	-0.238
GTCCCATA	-0.166
ATGATTTA	0.17
ACACCGAC	-0.113

Sequence	PBM E-score
CATCGGGA	-0.1
GGCAAATA	0.261
GTCCGACA	-0.00015
GGGCGTTA	0.206
AGCGGAGC	0.11
TAGTCTGA	0.00058
CGGACACC	-0.0328
CGGATCAA	0.161
CCCGGATA	-0.245
CTCTCATC	-0.141
CGTCCACA	-0.0597
CCGCCGCA	0.402
TAAGACAA	0.239
GGCTCTAC	0.187
ACCCTAAT	-0.098
ACGGGTTC	0.112
CTCCGAGC	-0.0689
CATAATTA	0.162
AAGATGTA	-0.0371
CGTAGAGC	0.201
CCATTCGA	-0.0302
GACGGTGA	-0.0519

Reference: the supplement of paper PMC3334620
